# Some of the results follow.
# B1: Surfactant Protein D (Human); Neck + Carbohydrate Recognition Domain (NCRD) (Homo sapiens) (protein)
# chain: MLLFLLSALVLLTQPLGYLEAEMKTYSHRTMPSACTLVMCSSVESGLPGRDRDGREGPRGEKGDPGLPGAAGQAGMPGQAGPVGPKGDNGSVGEPGPKGDTGPSGPPGPPGVPGPAGREGALGKQGNIGPQGKPGPKGEAGPKGEVGAPGMQGSAGARGLAGPKGERGVPGERGVPGNTGAAGSAGAMGPQGSPGARGPPGLKGDKGIPGDKGAKGESGLPDVASLRQQVEALQGQVQHLQAAFSQYKKVELFPNGQSVGEKIFKTAQFVKPFTEAQLLCTQAGGQLASPRSAAENAALQQLVVAKNEAAFLSMTDSKTEGKFTYPTGESLVYSNWAPGEPNDDGGSEDCVEIFTNGKWNDKACGEKRLVVCEF
# How the values were obtained:
# Assay in all cases: glycan array binding signal (z-score within array); higher = stronger binding
# Details in all cases: glycan notation: IUPAC condensed, linker removed; mutation: R343K
# [1] = target: Neu5Ac(a2-3)Gal(b1-3)[Fuc(a1-4)]GlcNAc(b1-3)Gal(b1-4)[Fuc(a1-3)]GlcNAc
# Outline: (§1)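 Negative Z-scores can be read as non-binding. The Z-score is calculated within each array and then averaged across arrays of one protein sequence at different concentrations or buffers and across linkers. Arrays, 3228 in all, were curated from the Consortium for Functional Glycomics database and kept only where the protein sequence was available.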
# [2] = target: Neu5Ac(a2-3)Gal(b1-3)[Neu5Ac(a2-3)Gal(b1-4)]GlcNAc
# Outline: as §1
# [3] = target: Neu5Ac(a2-3)Gal(b1-3)[Neu5Ac(a2-6)]GalNAc
# Outline: as §1
# Neu5Ac(a2-3)Gal(b1-4)Glc = target: Neu5Ac(a2-3)Gal(b1-4)Glc
# Outline: as §1
# [4] = target: Neu5Ac(a2-3)Gal(b1-4)GlcNAc
# Outline: as §1
# [5] = target: Neu5Ac(a2-3)Gal(b1-4)GlcNAc(b1-2)Man(a1-3)[GlcNAc(b1-2)Man(b1-4)GlcNAc(b1-2)Man(a1-6)]Man(b1-4)GlcNAc(b1-4)GlcNAc
# Outline: as §1
# [6] = target: Neu5Ac(a2-3)Gal(b1-4)GlcNAc(b1-2)Man(a1-3)[Neu5Ac(a2-6)Gal(b1-4)GlcNAc(b1-2)Man(a1-6)]Man(b1-4)GlcNAc(b1-4)GlcNAc
# Outline: as §1
# [7] = target: Neu5Ac(a2-3)Gal(b1-4)GlcNAc(b1-3)Gal(b1-3)GlcNAc
# Outline: as §1
# [8] = target: Neu5Ac(a2-3)Gal(b1-4)GlcNAc(b1-3)Gal(b1-4)GlcNAc
# Outline: as §1
# [9] = target: Neu5Ac(a2-3)Gal(b1-4)GlcNAc(b1-3)Gal(b1-4)GlcNAc(b1-3)Gal(b1-4)GlcNAc
# Outline: as §1
# [10] = target: Neu5Ac(a2-3)Gal(b1-4)GlcNAc(b1-3)Gal(b1-4)[Fuc(a1-3)]GlcNAc
# Outline: as §1
# [11] = target: Neu5Ac(a2-3)Gal(b1-4)GlcNAc(b1-6)[Gal(b1-3)]GalNAc
# Outline: as §1
# [12] = target: Neu5Ac(a2-3)Gal(b1-4)GlcNAc(b1-6)[Neu5Ac(a2-3)Gal(b1-3)]GalNAc
# Outline: as §1
# [13] = target: Neu5Ac(a2-3)Gal(b1-4)GlcNAc6S
# Outline: as §1
# [14] = target: Neu5Ac(a2-3)Gal(b1-4)[Fuc(a1-3)]GlcNAc
# Outline: as §1
# [15] = target: Neu5Ac(a2-3)Gal(b1-4)[Fuc(a1-3)]GlcNAc(b1-3)Gal
# Outline: as §1
# [16] = target: Neu5Ac(a2-3)Gal(b1-4)[Fuc(a1-3)]GlcNAc(b1-3)Gal(b1-4)GlcNAc
# Outline: as §1
# [17] = target: Neu5Ac(a2-3)Gal(b1-4)[Fuc(a1-3)]GlcNAc(b1-3)Gal(b1-4)[Fuc(a1-3)]GlcNAc(b1-3)Gal(b1-4)[Fuc(a1-3)]GlcNAc
# Outline: as §1
# [18] = target: Neu5Ac(a2-3)Gal(b1-4)[Fuc(a1-3)]GlcNAc(b1-6)[Gal(b1-3)]GalNAc
# Outline: as §1
# [19] = target: Neu5Ac(a2-3)Gal(b1-4)[Fuc(a1-3)]GlcNAc6S
# Outline: as §1
# [20] = target: Neu5Ac(a2-3)Gal6S(b1-4)GlcNAc
# Outline: as §1
# [21] = target: Neu5Ac(a2-3)Gal6S(b1-4)[Fuc(a1-3)]GlcNAc
# Outline: as §1
# Neu5Ac(a2-3)GalNAc = target: Neu5Ac(a2-3)GalNAc
# Outline: as §1
# [22] = target: Neu5Ac(a2-3)GalNAc(b1-4)GlcNAc
# Outline: as §1
# [23] = target: Neu5Ac(a2-3)[GalNAc(b1-4)]Gal(b1-4)Glc
# Outline: as §1
# [24] = target: Neu5Ac(a2-3)[GalNAc(b1-4)]Gal(b1-4)GlcNAc
# Outline: as §1
# [25] = target: Neu5Ac(a2-3)[Neu5Ac(a2-6)]GalNAc
# Outline: as §1
# Neu5Ac(a2-6)Gal = target: Neu5Ac(a2-6)Gal
# Outline: as §1
# Neu5Ac(a2-6)Gal(b1-4)Glc = target: Neu5Ac(a2-6)Gal(b1-4)Glc
# Outline: as §1
# [26] = target: Neu5Ac(a2-6)Gal(b1-4)GlcNAc
# Outline: as §1
# [27] = target: Neu5Ac(a2-6)Gal(b1-4)GlcNAc(b1-2)Man(a1-3)[Gal(b1-4)GlcNAc(b1-2)Man(a1-6)]Man(b1-4)GlcNAc(b1-4)GlcNAc
# Outline: as §1
# [28] = target: Neu5Ac(a2-6)Gal(b1-4)GlcNAc(b1-2)Man(a1-3)[GlcNAc(b1-2)Man(a1-6)]Man(b1-4)GlcNAc(b1-4)GlcNAc
# Outline: as §1
# [29] = target: Neu5Ac(a2-6)Gal(b1-4)GlcNAc(b1-2)Man(a1-3)[GlcNAc(b1-2)Man(b1-4)GlcNAc(b1-2)Man(a1-6)]Man(b1-4)GlcNAc(b1-4)GlcNAc
# Outline: as §1
# [30] = target: Neu5Ac(a2-6)Gal(b1-4)GlcNAc(b1-2)Man(a1-3)[Neu5Ac(a2-6)Gal(b1-4)GlcNAc(b1-2)Man(a1-6)]Man(b1-4)GlcNAc(b1-4)GlcNAc
# Outline: as §1
# [31] = target: Neu5Ac(a2-6)Gal(b1-4)GlcNAc(b1-2)Man(a1-6)[Gal(b1-4)GlcNAc(b1-2)Man(a1-3)]Man(b1-4)GlcNAc(b1-4)GlcNAc
# Outline: as §1
# [32] = target: Neu5Ac(a2-6)Gal(b1-4)GlcNAc(b1-2)Man(a1-6)[GlcNAc(b1-2)Man(a1-3)]Man(b1-4)GlcNAc(b1-4)GlcNAc
# Outline: as §1
# [33] = target: Neu5Ac(a2-6)Gal(b1-4)GlcNAc(b1-3)Gal(b1-4)GlcNAc
# Outline: as §1
# [34] = target: Neu5Ac(a2-6)Gal(b1-4)GlcNAc(b1-3)Gal(b1-4)[Fuc(a1-3)]GlcNAc(b1-3)Gal(b1-4)[Fuc(a1-3)]GlcNAc
# Outline: as §1
# [35] = target: Neu5Ac(a2-6)Gal(b1-4)GlcNAc6S
# Outline: as §1
# Neu5Ac(a2-6)GalNAc = target: Neu5Ac(a2-6)GalNAc
# Outline: as §1
# [36] = target: Neu5Ac(a2-6)GalNAc(b1-4)GlcNAc
# Outline: as §1
# Neu5Ac(a2-8)Neu5Ac = target: Neu5Ac(a2-8)Neu5Ac
# Outline: as §1
# [37] = target: Neu5Ac(a2-8)Neu5Ac(a2-3)Gal(b1-4)Glc
# Outline: as §1
# [38] = target: Neu5Ac(a2-8)Neu5Ac(a2-3)[GalNAc(b1-4)]Gal(b1-4)Glc
# Outline: as §1
# [39] = target: Neu5Ac(a2-8)Neu5Ac(a2-8)Neu5Ac
# Outline: as §1
# [40] = target: Neu5Ac(a2-8)Neu5Ac(a2-8)Neu5Ac(a2-3)Gal(b1-4)Glc
# Outline: as §1
# [41] = target: Neu5Ac(a2-8)Neu5Ac(a2-8)Neu5Ac(a2-3)[GalNAc(b1-4)]Gal(b1-4)Glc
# Outline: as §1
# [42] = target: Neu5Ac(a2-8)Neu5Ac(a2-8)Neu5Ac(a2-8)Neu5Ac(a2-3)[GalNAc(b1-4)]Gal(b1-4)Glc
# Outline: as §1
# [43] = target: Neu5Ac(b2-6)Gal(b1-4)GlcNAc
# Outline: as §1
# Neu5Ac(b2-6)GalNAc = target: Neu5Ac(b2-6)GalNAc
# Outline: as §1
# [44] = target: Neu5Ac9Ac(a2-6)Gal(b1-4)GlcNAc
# Outline: as §1
# [45] = target: Neu5Gc(a2-3)Gal(b1-3)GlcNAc
# Outline: as §1
# [46] = target: Neu5Gc(a2-3)Gal(b1-3)[Fuc(a1-4)]GlcNAc
# Outline: as §1
# Neu5Gc(a2-3)Gal(b1-4)Glc = target: Neu5Gc(a2-3)Gal(b1-4)Glc
# Outline: as §1
# [47] = target: Neu5Gc(a2-3)Gal(b1-4)GlcNAc
# Outline: as §1
# [48] = target: Neu5Gc(a2-3)Gal(b1-4)[Fuc(a1-3)]GlcNAc
# Outline: as §1
# [49] = target: Neu5Gc(a2-6)Gal(b1-4)GlcNAc
# Outline: as §1
# Neu5Gc(a2-6)GalNAc = target: Neu5Gc(a2-6)GalNAc
# Outline: as §1
# [50] = target: Neu5Gc(b2-6)Gal(b1-4)GlcNAc
# Outline: as §1
binder,measurement,setting,value
B1,glycan array binding signal (z-score),[1],-0.141
same,glycan array binding signal (z-score),[2],-0.153
same,glycan array binding signal (z-score),[3],-0.151
same,glycan array binding signal (z-score),Neu5Ac(a2-3)Gal(b1-4)Glc,-0.154
same,glycan array binding signal (z-score),[4],-0.15
same,glycan array binding signal (z-score),[5],-0.144
same,glycan array binding signal (z-score),[6],-0.153
same,glycan array binding signal (z-score),[7],-0.153
same,glycan array binding signal (z-score),[8],-0.152
same,glycan array binding signal (z-score),[9],-0.143
same,glycan array binding signal (z-score),[10],-0.151
same,glycan array binding signal (z-score),[11],-0.156
same,glycan array binding signal (z-score),[12],-0.149
same,glycan array binding signal (z-score),[13],-0.14
same,glycan array binding signal (z-score),[14],-0.147
same,glycan array binding signal (z-score),[15],-0.157
same,glycan array binding signal (z-score),[16],-0.151
same,glycan array binding signal (z-score),[17],-0.154
same,glycan array binding signal (z-score),[18],-0.12
same,glycan array binding signal (z-score),[19],-0.149
same,glycan array binding signal (z-score),[20],-0.148
same,glycan array binding signal (z-score),[21],-0.153
same,glycan array binding signal (z-score),Neu5Ac(a2-3)GalNAc,-0.089
same,glycan array binding signal (z-score),[22],-0.153
same,glycan array binding signal (z-score),[23],-0.152
same,glycan array binding signal (z-score),[24],-0.147
same,glycan array binding signal (z-score),[25],-0.15
same,glycan array binding signal (z-score),Neu5Ac(a2-6)Gal,-0.155
same,glycan array binding signal (z-score),Neu5Ac(a2-6)Gal(b1-4)Glc,-0.151
same,glycan array binding signal (z-score),[26],-0.155
same,glycan array binding signal (z-score),[27],-0.148
same,glycan array binding signal (z-score),[28],-0.147
same,glycan array binding signal (z-score),[29],-0.153
same,glycan array binding signal (z-score),[30],-0.147
same,glycan array binding signal (z-score),[31],-0.148
same,glycan array binding signal (z-score),[32],-0.145
same,glycan array binding signal (z-score),[33],-0.155
same,glycan array binding signal (z-score),[34],-0.142
same,glycan array binding signal (z-score),[35],-0.155
same,glycan array binding signal (z-score),Neu5Ac(a2-6)GalNAc,-0.156
same,glycan array binding signal (z-score),[36],-0.155
same,glycan array binding signal (z-score),Neu5Ac(a2-8)Neu5Ac,-0.146
same,glycan array binding signal (z-score),[37],-0.149
same,glycan array binding signal (z-score),[38],-0.154
same,glycan array binding signal (z-score),[39],-0.154
same,glycan array binding signal (z-score),[40],-0.155
same,glycan array binding signal (z-score),[41],-0.156
same,glycan array binding signal (z-score),[42],-0.155
same,glycan array binding signal (z-score),[43],-0.147
same,glycan array binding signal (z-score),Neu5Ac(b2-6)GalNAc,-0.155
same,glycan array binding signal (z-score),[44],-0.15
same,glycan array binding signal (z-score),[45],-0.158
same,glycan array binding signal (z-score),[46],-0.145
same,glycan array binding signal (z-score),Neu5Gc(a2-3)Gal(b1-4)Glc,-0.152
same,glycan array binding signal (z-score),[47],-0.153
same,glycan array binding signal (z-score),[48],-0.151
same,glycan array binding signal (z-score),[49],-0.155
same,glycan array binding signal (z-score),Neu5Gc(a2-6)GalNAc,-0.149
same,glycan array binding signal (z-score),[50],-0.145

# From the supplement of paper PMC8728848
